In US20250340636A1, “ANTIBODIES TARGETING L1CAM AND USES THEREOF” (MEMORIAL SLOAN-KETTERING CANCER CENTER, priority 2023, published 2025):

B1: TDI-Y-005 (antibody)
heavy: EVQMVESGGGLVQPGGSLRLSCAAPGFIFSSYNMNWVRQAPGKGLEWVSYISSSSSTTYYADSVKGRFTISRDNAKNSLYLQMNSLRDEDTAVYYCASLYSGYDYYYYYGMDVWGQGTTVTVSS[human IgG1 constant region not printed]
light: DIVMTQTPLSSPVSLGQPASISCRSSQSLVHSDGNTYLSWLQQRPGQPPRVLIYKISKRFSGVPDRFSGSGAGTDFTLKISRVEAEDVGVYYCMQATQFPFTFGPGTKVDIKRTVAAPSVFIFPPSDEQLKSGTASVVCLLNNFYPREAKVQWKVDNALQSGNSQESVTEQDSKDSTYSLSSTLTLSKADYEKHKVYACEVTHQGLSSPVTKSFNRGEC
B2: TDI-Y-004 (antibody)
heavy: QVQLVQSGAEVKKPGSSVKVSCKASGYTFTNYYIHWVRQAPGQGLEWMGKIGPGSGSPYYQGMFKDRVTITADESTSTAYMELSSLRSEDTAVYYCARWLLPFDYWGQGTLVTVSS[human IgG1 constant region not printed]
light: EIVLTQSPGTLSLSPGERATLSCRASSSVNYMHWYQQKPGQAPRLLIYATSILASGIPDRFSGSGSGTDYTLTISRLEPEDFAVYYCQQFSSDPLTFGGGTKVEIKRTVAAPSVFIFPPSDEQLKSGTASVVCLLNNFYPREAKVQWKVDNALQSGNSQESVTEQDSKDSTYSLSSTLTLSKADYEKHKVYACEVTHQGLSSPVTKSFNRGEC

Key:
human CHL-1 = target: T1, human CHL-1 (Homo sapiens, UniProt O00533); assay: Selectivity ELISA, CHL-1; type: binding; settings: for binding to CHL-1: 1 μM antibody; for Binding to human CHL-1 (L1CAM2): at 1 μM
T1 construct: human CHL-1 (residues 25-1096 with a C-terminal 10×His tag, R&D Systems); purchased R&D Systems
T1 sequence (O00533 25-1096 isoform O00533-2): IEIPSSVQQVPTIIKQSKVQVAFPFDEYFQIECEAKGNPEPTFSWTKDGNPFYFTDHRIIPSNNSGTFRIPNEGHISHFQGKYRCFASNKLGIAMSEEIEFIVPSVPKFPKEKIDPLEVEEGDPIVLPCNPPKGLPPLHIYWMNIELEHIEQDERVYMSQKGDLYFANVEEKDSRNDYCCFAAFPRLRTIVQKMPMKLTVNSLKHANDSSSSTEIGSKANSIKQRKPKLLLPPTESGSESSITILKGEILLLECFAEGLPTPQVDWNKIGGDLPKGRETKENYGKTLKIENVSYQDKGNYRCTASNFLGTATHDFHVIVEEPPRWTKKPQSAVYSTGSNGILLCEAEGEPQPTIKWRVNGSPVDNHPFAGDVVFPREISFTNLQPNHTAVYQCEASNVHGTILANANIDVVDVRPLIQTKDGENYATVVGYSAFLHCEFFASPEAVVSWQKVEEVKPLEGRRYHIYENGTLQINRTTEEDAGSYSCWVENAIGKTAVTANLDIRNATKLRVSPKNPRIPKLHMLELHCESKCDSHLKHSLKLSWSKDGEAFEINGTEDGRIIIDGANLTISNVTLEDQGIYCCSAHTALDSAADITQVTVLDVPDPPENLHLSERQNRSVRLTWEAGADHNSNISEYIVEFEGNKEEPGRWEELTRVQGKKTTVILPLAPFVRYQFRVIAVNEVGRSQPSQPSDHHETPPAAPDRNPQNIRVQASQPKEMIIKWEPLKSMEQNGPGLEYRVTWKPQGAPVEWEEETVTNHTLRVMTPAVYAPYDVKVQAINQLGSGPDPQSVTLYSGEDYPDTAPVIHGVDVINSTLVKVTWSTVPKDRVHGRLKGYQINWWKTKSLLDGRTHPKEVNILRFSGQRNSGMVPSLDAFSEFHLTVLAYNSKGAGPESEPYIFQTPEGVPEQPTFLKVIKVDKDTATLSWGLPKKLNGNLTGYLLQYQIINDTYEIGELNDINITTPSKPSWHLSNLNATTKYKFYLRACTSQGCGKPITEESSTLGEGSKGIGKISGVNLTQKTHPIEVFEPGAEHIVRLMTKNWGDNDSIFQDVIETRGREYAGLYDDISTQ
Text: (§1) Selectivity. […] These proteins are other members of the L1 family of cell adhesion proteins and have between 49% and 55% sequence similarity with L1CAM in the extracellular portion. […] Positive control antibodies were included for each homolog. […] Epitope. The extracellular portion of L1CAM contains six immunoglobulin-like (Ig) domains and five fibronectin type III (FN) domains. To narrow down the binding region of the development candidate mAbs, truncated versions of human L1CAM protein (Ig domain, residues 21-605; FN domain, residues 606-1116; each with a C-terminal 6×His tag) were recombinantly produced, followed by a BLI experiment to test binding at 50 and 100 nM. […] 6×His tag is set forth in SEQ ID NO: 316.

human NrCAM = target: T2, human NrCAM (Homo sapiens, UniProt Q92823); assay: Selectivity ELISA, NrCAM; type: binding; settings: for binding to NrCAM: 1 μM antibody; for Binding to human NrCAM: at 1 μM
T2 construct: human NrCAM (residues 30-600 with a C-terminal human IgG1 Fc tag, R&D Systems); purchased R&D Systems
T2 sequence (Q92823 30-600): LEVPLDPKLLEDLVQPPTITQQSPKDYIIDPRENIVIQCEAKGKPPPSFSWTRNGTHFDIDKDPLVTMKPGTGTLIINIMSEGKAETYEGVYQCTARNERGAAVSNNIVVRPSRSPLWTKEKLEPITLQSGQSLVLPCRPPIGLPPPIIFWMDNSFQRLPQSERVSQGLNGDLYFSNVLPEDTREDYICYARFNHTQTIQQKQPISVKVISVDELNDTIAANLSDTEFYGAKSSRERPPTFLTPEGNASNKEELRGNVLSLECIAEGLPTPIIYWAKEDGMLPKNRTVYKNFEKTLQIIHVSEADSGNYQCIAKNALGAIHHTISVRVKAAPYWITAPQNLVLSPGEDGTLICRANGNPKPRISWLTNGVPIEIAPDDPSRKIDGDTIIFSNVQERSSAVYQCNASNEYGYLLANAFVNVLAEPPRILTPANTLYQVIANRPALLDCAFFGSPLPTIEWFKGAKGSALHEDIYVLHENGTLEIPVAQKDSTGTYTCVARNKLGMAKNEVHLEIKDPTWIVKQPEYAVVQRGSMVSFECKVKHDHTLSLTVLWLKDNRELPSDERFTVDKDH
Text: as §1

[1] = test system: MDA-MB-231-LM2 breast cancer cells; assay: MDA-MB-231-LM2 subcutaneous xenografts; type: in vivo; settings: MDA-MB-231 subcutaneous xenograft model, mouse
Procedure: Athymic mice were transplanted subcutaneously with MDA-MB-231-LM2 breast cancer cells. […] FIGS. 26A and 26B show tumor growth monitored on a weekly basis.
MDA-MB-231-LM2 Subcutaneous Xenografts. Doses of 5×10^6 cells of the aggressive lung metastatic derivative (MDA231-LM2) of the MDA-MB-231 triple negative breast cancer cell line were injected into the flank of athymic mice, and tumors were grown until they reached 100 mm^3 in size.

[2] = target: HEK293T cells overexpressing human L1CAM (Homo sapiens, UniProt P32004); assay: Flow cytometry binding to HEK293T cells overexpressing human L1CAM; parameters: expressed in transfected cells
Procedure: Hybridoma Screening. Binding to human L1CAM protein was tested by ELISA and to a HEK293T cell line overexpressing human L1CAM by flow cytometry. […] Cross-reactivity to cynomolgus L1CAM was not assessed at this point, as it is >99% homologous to human L1CAM. […] The antibodies were tested for binding to MDA-MB-231 cells, a breast cancer cell line that endogenously expresses L1CAM, followed by analysis of their internalization efficacy in MDA-MB-231 cells.
Binding Analysis. […] Dissociation constants (KD) for binding to soluble human and cynomolgus monkey L1CAM-His were determined using biolayer interferometry (BLI). In addition, EC50 values for binding to cell-bound L1CAM were established by flow cytometry using HEK293T/FT cells overexpressing human or mouse L1CAM, MCF-7 cells, and MDA-MB-231 cells. In addition, the epitope regions of the mAbs were determined by BLI interaction analysis with L1CAM subdomains (Ig and FN) expressed individually, and by a BLI competition experiment to identify epitope bins.
Binding to L1CAM on Cells. […] Cells were then incubated with an AlexaFluor 647 goat anti-human Fc secondary antibody. After washing, the stained cells were analyzed by flow cytometry.

Sequence of HEK293T cells overexpressing human L1CAM (P32004 20-1257): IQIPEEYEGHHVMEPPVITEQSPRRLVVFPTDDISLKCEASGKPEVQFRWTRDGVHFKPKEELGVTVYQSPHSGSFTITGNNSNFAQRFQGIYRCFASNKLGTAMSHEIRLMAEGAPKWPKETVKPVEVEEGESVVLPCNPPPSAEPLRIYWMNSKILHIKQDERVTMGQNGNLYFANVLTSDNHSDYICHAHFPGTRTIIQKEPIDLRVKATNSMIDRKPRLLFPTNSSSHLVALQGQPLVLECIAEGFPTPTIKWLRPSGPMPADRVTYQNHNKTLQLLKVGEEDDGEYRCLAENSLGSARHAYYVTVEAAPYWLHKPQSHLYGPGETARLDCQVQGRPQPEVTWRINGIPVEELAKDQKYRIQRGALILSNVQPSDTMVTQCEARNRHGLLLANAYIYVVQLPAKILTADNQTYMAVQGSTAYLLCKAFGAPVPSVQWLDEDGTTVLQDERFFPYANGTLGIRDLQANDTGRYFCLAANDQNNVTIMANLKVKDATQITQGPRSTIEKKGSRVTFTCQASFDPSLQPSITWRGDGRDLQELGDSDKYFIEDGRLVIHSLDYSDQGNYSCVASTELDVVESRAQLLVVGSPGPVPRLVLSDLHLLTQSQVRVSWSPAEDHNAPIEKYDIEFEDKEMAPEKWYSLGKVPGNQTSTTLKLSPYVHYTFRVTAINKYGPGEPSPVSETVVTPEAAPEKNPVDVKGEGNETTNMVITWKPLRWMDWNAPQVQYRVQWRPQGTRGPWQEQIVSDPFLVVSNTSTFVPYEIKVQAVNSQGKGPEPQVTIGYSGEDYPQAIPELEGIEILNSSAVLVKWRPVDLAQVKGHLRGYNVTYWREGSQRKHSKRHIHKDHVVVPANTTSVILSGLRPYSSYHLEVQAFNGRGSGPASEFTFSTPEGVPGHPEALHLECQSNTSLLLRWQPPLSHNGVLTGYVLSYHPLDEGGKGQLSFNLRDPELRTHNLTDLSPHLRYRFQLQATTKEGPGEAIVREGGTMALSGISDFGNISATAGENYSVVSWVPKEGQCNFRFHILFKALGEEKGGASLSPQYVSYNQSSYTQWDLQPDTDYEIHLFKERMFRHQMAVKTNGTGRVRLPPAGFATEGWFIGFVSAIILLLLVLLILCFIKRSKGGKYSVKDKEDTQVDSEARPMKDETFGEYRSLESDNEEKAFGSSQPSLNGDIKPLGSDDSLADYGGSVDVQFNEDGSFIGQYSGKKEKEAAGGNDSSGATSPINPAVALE

| Molecule | binding to CHL-1 (human CHL-1) | Binding to human CHL-1 (L1CAM2) (human CHL-1) | binding to NrCAM (human NrCAM) | Binding to human NrCAM (human NrCAM) | Survival ([1]; ADC with cleavable linker) | Tumor control ([1]; ADC with cleavable linker) | Tumor regrowth, days after last dose ([1]; ADC with cleavable linker) | Survival ([1]; ADC with non-cleavable linker) | Tumor control ([1]; ADC with non-cleavable linker) | Tumor recurrence, days after last dose ([1]; ADC with non-cleavable linker) | Tumor regression ([1]; ADC with non-cleavable linker) | EC50 for binding to cells [2] |
| --- | --- | --- | --- | --- | --- | --- | --- | --- | --- | --- | --- | --- |
| B1 | No binding | No binding at 1 μM | No binding | No binding at 1 μM | 100% survival | >90% tumor control | No tumor regrowth up to 60 days | 100% survival | 100% tumor control, | No tumor recurrence up to 60 days | complete regression | single-digit nM range |
| B2 | No binding | No binding at 1 μM | No binding | No binding at 1 μM | 100% survival | >90% tumor control | No tumor regrowth up to 60 | 100% survival | 100% | No tumor recurrence up to 60 | complete | single-digit nM range |
